From the supplement of paper PMC3334620
In all, about 33,000 sequences were measured (“E-score (-0.5 to 0.5)”: median about -0.011, highest 2% from about 0.28 on). The list shows a part of the results.

Each sequence was assayed against T1, Gcr1 (UniProt P07261) (assay: PBM E-score (8-mer binding enrichment) (E-score (-0.5 to 0.5)); higher = stronger / more preferred TF binding; most listed sequences are background and not binding sites). Settings: protein concentration: 100 nM; construct: GST-full length.
T1 sequence: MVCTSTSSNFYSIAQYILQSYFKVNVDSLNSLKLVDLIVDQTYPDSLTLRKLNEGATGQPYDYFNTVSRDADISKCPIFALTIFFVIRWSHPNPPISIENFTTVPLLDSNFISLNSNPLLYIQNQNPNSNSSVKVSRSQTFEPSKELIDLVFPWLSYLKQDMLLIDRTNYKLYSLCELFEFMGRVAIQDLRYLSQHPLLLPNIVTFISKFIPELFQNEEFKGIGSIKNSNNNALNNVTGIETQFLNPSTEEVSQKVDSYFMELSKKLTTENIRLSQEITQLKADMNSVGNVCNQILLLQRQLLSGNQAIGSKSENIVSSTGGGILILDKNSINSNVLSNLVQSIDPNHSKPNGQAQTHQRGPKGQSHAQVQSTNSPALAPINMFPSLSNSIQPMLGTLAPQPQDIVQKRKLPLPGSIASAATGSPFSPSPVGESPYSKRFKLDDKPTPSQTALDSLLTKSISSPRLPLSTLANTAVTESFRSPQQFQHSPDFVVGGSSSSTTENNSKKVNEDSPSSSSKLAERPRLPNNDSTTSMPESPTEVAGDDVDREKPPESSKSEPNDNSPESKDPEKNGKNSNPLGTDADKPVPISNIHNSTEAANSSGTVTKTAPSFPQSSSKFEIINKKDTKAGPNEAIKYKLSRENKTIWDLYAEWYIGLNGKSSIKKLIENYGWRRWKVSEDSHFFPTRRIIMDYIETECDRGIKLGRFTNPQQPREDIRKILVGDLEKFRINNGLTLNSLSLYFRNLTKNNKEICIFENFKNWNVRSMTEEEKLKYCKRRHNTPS
Method in brief: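 Yeast transcription factors carrying a GST tag, as full-length proteins or DNA-binding domains, were produced by PURExpress in vitro transcription/translation. About 100-200 nM protein was applied to universal all-10-mer Agilent arrays, double-stranded by primer extension on fresh or once-stripped slides. Bound protein was detected with fluorescent anti-GST, and scans were normalised with masliner. The Universal PBM Analysis Suite gave each ungapped eight-base word, pooled with its reverse complement, an E-score, a modified Wilcoxon-Mann-Whitney statistic.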

Sequence	PBM E-score
CATCAATA	0.185
CGTACGTA	0.0529
AGCGCAGA	0.0239
CGCGAAAC	-0.0979
AAACTATT	0.0178
GATCCGGC	-0.0058
ACGGGCCT	-0.107
CAGCCGAA	0.1
CACGGGAG	-0.0457
CGCCGGTA	0.106
AATATCGA	0.0225
GTTAAGTA	0.111
CGCATCCC	0.319
CTCATATA	-0.0578
ATGAATCC	0.0178
CTGATGCA	-0.079
AAAACTAA	0.13
ATGGTGAA	-0.156
GCATTCCA	0.16
CCAGTGCG	0.0274
CATGTTGC	0.143
ATTCCGCC	-0.0712

Sequence	PBM E-score
CAAACAGA	-0.0985
CGGCTCCA	0.0712
ACCAATTC	0.0991
CGATGACC	-0.117
CGTCCTGC	-0.145
ACAGCGAT	-0.086
AGTCGCGC	-0.0379
CCACTCGG	0.0661
TATACGCA	0.285
CCGATGAC	-0.0977
ATCTTTAG	0.139
ACAAGCGT	-0.174
AATAAGGT	0.155
ATGATAAG	0.112
ATCTAGGA	0.0629
CGATGACG	-0.106
ACTCAGTC	-0.0958
GCCAGTCA	-0.083
CACATCCG	-0.148
GAATCCCC	0.0893
GCAAGAGC	-0.173
AGTGAATC	-0.0635

Sequence	PBM E-score
AAGGACCT	0.00148
CGGTTAAG	-0.0505
CGGTACAG	0.0373
CCGATCTC	-0.243
AGCTGATC	0.139
GCGATTCA	-0.0634
CTCTCGAC	-0.229
ACGCTCAG	0.117
GCAGGGCA	-0.139
AAAACATG	0.0161
CAGTTACA	0.117
GCCCTCTA	0.0535
AGCATAAT	-0.00272
ATTGGTCA	-0.0559
AGGAGCGA	-0.201
ATCCGGCA	0.114
ATGACTAG	-0.0753
AATTAGAC	0.222
CTCTTGAA	-0.0508
CACTGTGA	-0.0508
AGATATCG	-0.161
AGGGACCG	-0.0809

Sequence	PBM E-score
CGACGGGA	0.0384
AGTAGTAA	0.0445
TCAACGGA	0.0865
CAACGATC	-0.269
TAGTGGCA	0.289
AAAGGCAG	0.071
AGTCGAGA	-0.208
ATCATCGA	-0.0322
ATAGAACG	-0.0396
TACGCAAA	-0.134
CACGATAA	0.248
CATGCCGC	-0.0918
CGTTCATA	-0.0211
CAACCTGA	0.0194
GATCGCGC	-0.153
TCCCTAGA	-0.0166
AAGAGGCT	0.145
ACATCTTC	0.114
GGTCGGCA	-0.00498
AACAAGGA	0.147
CCTGGGCG	-0.233
GGAGCTCC	0.0925

Sequence	PBM E-score
ATTTATCG	0.0757
CGAGTGCC	-0.132
ACCTGGCC	-0.079
CATATACG	0.0883
ACGGAAAC	0.159
ACCGTTAA	-0.119
GAGTTTGA	0.0102
TGAAATCA	-0.0173
CCGGGTCA	-0.186
CACATTTA	-0.00463
CAGAAAGA	0.00303
CCTAGCTA	0.0429
CCTACCAG	-0.108
GCATACTA	-0.0175
CGACTAAC	0.135
GAACCCCA	0.344
CGTTTGGC	0.0404
ATGGCCGC	-0.0786
AGGTTGTG	-0.121
CACGTAGA	0.222
CCCATTCA	-0.0426
